From PubChem BioAssay AID485364 (National Center for Advancing Translational Sciences (NCATS), 2010)
Among all 360,000 compounds or so, about 11,000 (3.1%) were called active. The shares of active, inactive and inconclusive entries below differ from those in the screen. The call rests on the fitted dose curve; in most records, active means well fitted inhibition curve with a large enough effect; inconclusive means small, poorly fitted or top-dose-only effect; inactive means no such curve, though single readings can be large or run the other way. Potencies of inconclusive entries are left out as doubtful fits.
Further: nearly all actives have a fitted effect of over 60% in size.
Potency means the concentration at half of the fitted maximal effect; tags describe the fitted curve by direction and shape.

What follows are molecules tested against Schistosoma mansoni thioredoxin glutathione reductase (TGR) (UniProt Q962Y6) (assay: qHTS Assay for the Inhibitors of Schistosoma Mansoni Peroxiredoxins). Conditions: purified TGR, DTNB reduction, TNB absorbance 405 nm; series mostly up to 114 µM.
Summary of the method: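 TGR 20 nM + NADPH 100 uM (dispensed conc.), cpd preinc 15 min RT; start with NADPH (500 uM addition) then DTNB (15 mM addition). Kinetic TNB absorbance, 405 nm filter. Four-parameter Hill fit across titration.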
For `Cc1ccc(S(=O)(=O)C(CNS(=O)(=O)c2cc(F)ccc2F)c2cccs2)cc1` (centres undefined), the Potency was inconclusive [inhibitor, partial curve, poor fit].
In the case of `O=C1NCCN(Cc2ccc(Cl)c(F)c2)C1CC(=O)N1CCc2ccccc2C1` (centres undefined), the Potency is reported as active: 20 µM.
For `COc1cc(-c2nc(S(=O)(=O)c3ccc(C)cc3)c(N3CCOCC3)o2)cc(OC)c1OC`, the Potency was inconclusive [inhibitor, partial curve].
With `CCOC(=O)NC(=O)C(=CNNc1ncc(C(F)(F)F)cc1Cl)C(=O)NC(=O)OCC` the Potency was inconclusive [inhibitor, single point].
With `COc1ccc(CCC(=O)NC2CC(=O)N(c3ccc(F)cc3)C2)cc1` (centres undefined) the Potency was “inactive”.
For `COc1ccc(N2C(=O)C(Cl)=C(Nc3ccccc3O)C2=O)cc1`, the Potency was active: 39.8 µM.
With `COC(=O)c1cccc(NC(=O)CN2CCN(Cc3ccccc3)CC2)c1` the Potency was inconclusive [inhibitor, partial curve].
For `COc1ccc(-c2noc(CCC(=O)NCCN(C)Cc3ccccc3)n2)cc1`, the Potency was active: 89.1 µM.
With `COc1ccc(-n2nc3c(c2NC(=O)c2ccc4c(c2)OCO4)CS(=O)(=O)C3)cc1` the Potency was inconclusive [inhibitor, partial curve].
In the case of `O=C(N/N=C/c1cc(Br)c(Br)o1)c1ccc2c(c1)OCCO2`, the Potency is reported as active: 11.2 µM.
In the case of `CCC(=O)c1ccc(OCC(=O)N(Cc2nnc(-c3ccccc3Cl)o2)C2CC2)cc1`, the Potency is reported as inconclusive [inhibitor, partial curve].
With `Cc1ccc2sc(NNC(=O)c3cc(-c4cccs4)nc4ccccc34)nc2c1C` the Potency was “inactive”.
In the case of `O=C(CCS(=O)(=O)c1ccccc1)Nc1ccc2c(c1)OCO2`, the Potency is reported as active: 20 µM.
`CCOc1c(Br)cc(CNc2ccc3c(c2)OCCO3)cc1OC` was tested, and the Potency was inconclusive [inhibitor, partial curve, poor fit].
With `COc1ccccc1-c1csc(Cc2nnc3n2CCCCC3)n1` the Potency was “inactive”.
In the case of `Oc1c(C(Nc2ccccn2)c2ccccc2F)ccc2cccnc12` (centres undefined), the Potency is reported as active: 2 µM.
In the case of `CC12CCC3C(CC=C4CC(O)CCC43C)C1C/C(=C\c1cccc(F)c1)C2=O` (centres undefined), the Potency is reported as “inactive”.
In the case of `CC(/C=C/c1ccc(Cl)o1)=C\C(=O)O`, the Potency is reported as active: 8.91 µM.
`CCCOC1CCCN(C(=O)CCc2nnc(-c3ccc4c(c3)OCO4)o2)C1` (centres undefined) was tested, and the Potency was “inactive”.
In the case of `Cc1ccc([C@@H]2[C@@H]3C(=O)N(C)C(=O)[C@@H]3[C@]3(Cc4ccccc4)C(=O)N(Cc4ccccn4)CC(=O)N23)o1`, the Potency is reported as inconclusive [inhibitor, partial curve].
In the case of `Cc1cccc(OC(=O)CSc2nnc(-c3ccc4c(c3)OCO4)o2)c1C`, the Potency is reported as inconclusive [inhibitor, single point].
`Cc1cn(C)c(CC(=O)NCc2ccc(Cl)cc2)c1C(=O)O` was tested, and the Potency was inconclusive [inhibitor, partial curve].
`O=C1NC(=Nc2ccccc2)S/C1=C\c1cccnc1` was tested, and the Potency was “inactive”.
In the case of `Cn1c(=O)c([N+](=O)[O-])c(Oc2ccccc2)c2ccccc21`, the Potency is reported as active: 2.82 µM.
`O=C(NC(=S)Nc1ccc(CN2CCOCC2)cc1)c1ccc2c(c1)OCCO2` was tested, and the Potency was inconclusive [inhibitor, partial curve].
For `Cc1cc(C)cc(N2Cc3ccccc3C2)c1`, the Potency was inconclusive [inhibitor, full curve].
With `Cc1cccc(-n2ncc3c(NCc4ccco4)ncnc32)c1` the Potency was active: 44.7 µM.
For `Nc1nc(N)c(N=O)c(OCC2CCCCC2)n1`, the Potency was “inactive”.
`CCCOc1ccc(CN(C)c2ncnc(N)n2)cc1` was tested, and the Potency was “inactive”.
For `O=C(CCOc1ccccc1)N1CCN(c2ccc(O)cc2)CC1`, the Potency was inconclusive [inhibitor, partial curve].
For `COc1ccc(C(=O)NNC2=CC(=O)CC(C)(C)C2)cc1`, the Potency was inconclusive [inhibitor, partial curve].
`CC(=O)c1ccc(N2CCN(C(=O)c3ccco3)CC2)c(F)c1` was tested, and the Potency was inconclusive [inhibitor, partial curve].
For `CC(=O)N1CC=C2C(C#N)=C(N)C(C#N)(C#N)[C@H](c3ccoc3)[C@H]2C1`, the Potency was inconclusive [inhibitor, single point].
With `O=C(NCCc1ccccc1)c1ccc2c(c1)N(Cc1ccc(F)cc1)C(=O)CS2` the Potency was “inactive”.
In the case of `Cc1ccc(C2CC(=O)NC(SCC(=O)OCc3ccccc3)=C2C#N)o1` (centres undefined), the Potency is reported as inconclusive [inhibitor, partial curve].
`Cc1ccc(S(=O)(=O)N(C)C)cc1NC(=S)NCc1ccco1` was tested, and the Potency was inconclusive [inhibitor, single point].
With `Cn1c(=NC(=O)CCl)sc2ccccc21` the Potency was active: 25.1 µM.
For `CCc1nnc2n1N=C(c1ccccc1)CS2`, the Potency was active: 44.7 µM.
For `S=C(NCC1CCCO1)Nc1ccccc1Cl` (centres undefined), the Potency was inconclusive [inhibitor, partial curve].
For `Cc1cc(C(=O)C(C)Cl)c(C)n1Cc1ccco1` (centres undefined), the Potency was active: 28.2 µM.
With `COc1ccc(-n2nc([N+](=O)[O-])c(=NCc3ccco3)n2O)cc1` the Potency was inconclusive [inhibitor, partial curve].
`COc1ccc(C2C(=O)N(C3CCCCC3)CC(=O)N2Cc2ccco2)cc1` (centres undefined) was tested, and the Potency was active: 31.6 µM.
In the case of `Cc1cccn2c(=O)c(C=Nc3ccccc3)c(NCc3ccco3)nc12`, the Potency is reported as inconclusive [inhibitor, partial curve].
`O=c1[nH]c(=O)n(Cc2ccco2)c2c1C(C(F)(F)F)(C(F)(F)F)N=C(c1ccco1)N2` was tested, and the Potency was inconclusive [inhibitor, partial curve].
For `Cc1ccc(NC2=C(Cl)C(=O)c3ccccc3C2=O)cc1`, the Potency was active: 3.55 µM.
`COc1ccc(NC(=O)CCC(=O)N/N=C/c2ccc([N+](=O)[O-])s2)cc1` was tested, and the Potency was inconclusive [inhibitor, partial curve].
`Cc1ccccc1-c1oc(C)c(C)[n+]1[O-]` was tested, and the Potency was active: 25.1 µM.
For `COc1ccc(NC(=S)N(Cc2cccnc2)Cc2cc3cc(OC)c(OC)cc3[nH]c2=O)cc1`, the Potency was “inactive”.
For `CN(C(=O)c1cccnc1)c1nnc(-c2ccccn2)s1`, the Potency was “inactive”.
For `CCN1C(=O)C2(C(C(=O)c3ccc(C)o3)=C(O)C(=O)N2CCCN2CCOCC2)c2ccccc21` (centres undefined), the Potency was active: 50.1 µM.
For `Cn1cnc2cc(NCc3ccccc3Cl)ccc21`, the Potency was “inactive”.
In the case of `C/C(=N\NS(=O)(=O)c1cccc([N+](=O)[O-])c1)c1cc2ccccc2o1`, the Potency is reported as inconclusive [inhibitor, partial curve, poor fit].
For `Cc1ccc(S(=O)(=O)Nc2cc(C)cn(Cc3ccc(F)cc3)c2=O)cc1`, the Potency was inconclusive [inhibitor, partial curve].
In the case of `CCOC(=O)N1CCC(NC(=O)c2cccc3c2C(=O)N(CCOC)C3)CC1`, the Potency is reported as inconclusive [inhibitor, full curve, poor fit].
For `CCNC(=S)Nc1ccc(Cl)cc1`, the Potency was inconclusive [inhibitor, partial curve].
In the case of `CC1CC2=C(NC(=S)NC2c2ccc(F)cc2)/C(=C/c2ccc(F)cc2)C1` (centres undefined), the Potency is reported as inconclusive [inhibitor, partial curve].
`Cc1cnc(C(=O)Nc2nc(-c3ccccc3)cs2)cn1` was tested, and the Potency was “inactive”.
For `COc1ccc(NC(=O)CSc2ccc(-c3ccco3)nn2)cc1OC`, the Potency was active: 44.7 µM.
With `CC(C)C(=O)Nc1ccc(C(=O)Nc2ccc(S(=O)(=O)N3CCOCC3)cc2)cc1` the Potency was inconclusive [inhibitor, partial curve, poor fit].
For `COc1cc2cc(C(=O)N3CCN(c4ccccc4OC)CC3)[nH]c2cc1OC`, the Potency was inconclusive [inhibitor, partial curve].
In the case of `CC(=O)c1cccc(S(=O)(=O)Nc2c(C)nn(C)c2C)c1`, the Potency is reported as inconclusive [inhibitor, partial curve].
In the case of `CC(O)(C#CCN1CCOCC1)c1ccccc1` (centres undefined), the Potency is reported as inconclusive [inhibitor, partial curve].
For `COc1ccc(OC)c(S(=O)(=O)N2CCNCC2)c1`, the Potency was inconclusive [inhibitor, partial curve].
With `O/N=C1\CCC\C1=C/c1ccco1` the Potency was inconclusive [inhibitor, partial curve].
`Cc1[nH]c2ccc(OCc3ccccc3)cc2c1CCN` was tested, and the Potency was “inactive”.
`COc1ccc(C(C)=O)cc1CSc1nncn1-c1ccccc1` was tested, and the Potency was inconclusive [inhibitor, partial curve].
With `COc1ccc2oc(=O)c(-c3nc(-c4cc(OC)c(OC)c(OC)c4)no3)cc2c1` the Potency was “inactive”.
In the case of `COc1c(/C=C2/C(=O)NC(=O)N(C)C2=O)c(CCN(C)C(=O)c2ccccc2)cc2c1OCO2`, the Potency is reported as inconclusive [inhibitor, full curve, poor fit].
`NCCC(=O)N1c2ccccc2Sc2ccc(Cl)cc21` was tested, and the Potency was inconclusive [inhibitor, single point].
With `Cc1ccc(C(=O)N(CC(C)C)c2nc3ccccc3s2)o1` the Potency was inconclusive [inhibitor, partial curve, poor fit].
In the case of `Cc1nn2c3c(cnc2c1-c1ccccc1)C(=O)CC(c1ccco1)C3` (centres undefined), the Potency is reported as active: 35.5 µM.
With `CC(C)c1ccc(CN2CCN(C(=O)CCl)CC2)cc1` the Potency was inconclusive [inhibitor, partial curve].
With `Cc1nc(NCCc2ccccc2F)c(C#N)c(C)c1[N+](=O)[O-]` the Potency was “inactive”.
For `CSc1oc(-c2ccco2)nc1S(=O)(=O)c1ccc(C)cc1`, the Potency was inconclusive [inhibitor, partial curve].
